Read counts are not given, so values of variants with three or more changes are uncertain.
B1: LINE1-mini (parent)
chain: GGCAGAGCUCAACACAGCGUGGCAAAGUGGCUGUGGCUAGACUGCC

Variants of: B1
Test: self-cleavage, relative activity (ratio to wild type); higher = more cleavage; in vitro, sequencing; the parent is a self-cleaving ribozyme

Question: With GGCAGAGCUCAACCCAUAGUGGCAAAGUGGCUGUGGCUAGACUGCC [A14C G17U C18A] as the variant, how does the self-cleavage read?
Answer: 0.1

Question: For GGCAGACCUCAACACAGUGUGGCAAAGUGGCUGUGGCUCGACUGCC [G7C C18U A39C], which self-cleavage is on record?
Answer: 0.04

Question: For GGCCGAGCUCAACACAGCGGGGCAAAGUGGCUGUGGCUACACUGGC [A4C U20G G40C C45G], which self-cleavage is on record?
Answer: 0.15

Question: For GGAAGAGCUCAAAACAGCGUGGCAUAGUGGCUGCGGCUAGACUGCC [C3A C13A A25U U34C], which self-cleavage is on record?
Answer: 0.24

Question: With GGCAGAGCUCAACACAGCGUGGCAGAGUCGCUGUGGCUAGAAUGCC [A25G G29C C42A] as the variant, how does the self-cleavage read?
Answer: 0.08

Question: With CGCAGCGCUCAACUCAGCGUGGCAAAGUGGCUGUGGCUAGACUGCC [G1C A6C A14U] as the variant, how does the self-cleavage read?
Answer: 0.04

Question: For GGCAGAGCUCAACACAGCGUGGCAGAGUGGCUGUGGCUCAACAGCC [A25G A39C G40A U43A], which self-cleavage is on record?
Answer: 0.03

Question: With GGCAGAGCUAAAAACAGUGUUGCAAAGUGGCUGUGGCUAGACUGCC [C10A C13A C18U G21U] as the variant, how does the self-cleavage read?
Answer: 0.03

Question: Which self-cleavage does the source give for GGUAGAGCUCGACACAGCGUGACAAAGUGGCUGUGGCUAGACUGCC [C3U A11G G22A] here?
Answer: 0.01

Question: Which self-cleavage does the source give for GGCAGAGCUCCACACAGCGUGGCAAAGUGGCUGUGGAUACACUUCC [A11C C37A G40C G44U] here?
Answer: 0.04

Question: For GGCAUAGCUGAACACAGCGUGGCAAAGAUGCUGUGGCUAGACUGCC [G5U C10G U28A G29U], which self-cleavage is on record?
Answer: 0.03

Question: With GGAAGAGCUCAACACAGCGUGGCAACGAGGGUUUGGCUAGGCUGCC [C3A A26C U28A C31G G33U A41G] as the variant, how does the self-cleavage read?
Answer: 0.13

Question: For GGCAGAUCUCUACACAGCGUGCCAAAGUGGCUGUGGCUAGACUGCC [G7U A11U G22C], which self-cleavage is on record?
Answer: 0.02

Question: Which self-cleavage does the source give for GGCAGAGCUCACCACAGCGUGGCAGAGUAGUUGUGGCUAGACUGCC [A12C A25G G29A C31U] here?
Answer: 0.03

Question: Which self-cleavage does the source give for GGCAUAGCUCUACAAAGCCUGGCAAAGUGGCUGUGGCUAGCCUGCC [G5U A11U C15A G19C A41C] here?
Answer: 0.01

Question: For GGCAGAGCUCAACACAGCGUGGCAAAGUGGCUGGAGCGAGACUGCC [U34G G35A U38G], which self-cleavage is on record?
Answer: 0.02

Question: For GGCAGAGCUCAACACAGCCUAGCAAAGUGGCUGUGUCUAGACUCCC [G19C G21A G36U G44C], which self-cleavage is on record?
Answer: 0.02

Question: For GGCAAAGCUCCACACGGCGGGACAAAGUGGCUGUGGCUAGACUGCC [G5A A11C A16G U20G G22A], which self-cleavage is on record?
Answer: 0.01

Question: For UUCAGAGCUCAACACAGCGAGGCAAAGUGGCUGUGGCUAGACUGCU [G1U G2U U20A C46U], which self-cleavage is on record?
Answer: 0.09

Question: Which self-cleavage does the source give for GGCCGAGCUCUACACAGCGUGGCAAAGUGGCUGUGACUAGACUGUC [A4C A11U G36A C45U] here?
Answer: 0.01

Question: Which self-cleavage does the source give for GGCAGAGCUCAACACACCGUGGCAAAGUGGCUGUGACUAGUCUGUC [G17C G36A A41U C45U] here?
Answer: 0.09

Question: With GGUUGAGCUCAACACAUCGUGGCAAAGUGGCUGUGGCUACACUGCC [C3U A4U G17U G40C] as the variant, how does the self-cleavage read?
Answer: 0.02

Question: For GGCAGAGCUCAACACAGAGUGUCAAAGUGACUGUGGCUACACUGUC [C18A G22U G30A G40C C45U], which self-cleavage is on record?
Answer: 0.03

Question: Which self-cleavage does the source give for GGUAGAGCGCAACACUGCGUGGUAAAGUGGCUGUGGCUAGACUGCC [C3U U9G A16U C23U] here?
Answer: 0.03

Question: With GGAAGAGCUGCACACAGCGUGGCAAAGUGGCUGUGGCUAGACUGCC [C3A C10G A11C] as the variant, how does the self-cleavage read?
Answer: 0.04

Question: For GGCAGAGCCCAACACAGCGUGGCAAAGUGGCUGUGGAAAAACUGCC [U9C C37A U38A G40A], which self-cleavage is on record?
Answer: 0.01

Question: With GGCAGAGCUCAACACAGCGUGGCAAAGUGGUUGUUGCUAGACUGCG [C31U G35U C46G] as the variant, how does the self-cleavage read?
Answer: 0.05

Question: Which self-cleavage does the source give for GGCAGAGCUCAACACAGCCUGGCAAACUGGCUGUGGCUAGACUCCU [G19C G27C G44C C46U] here?
Answer: 0.05

Question: Which self-cleavage does the source give for GGCAGAGCUCAAAACAGCGUGGCAAACUGGUUGUGGCUAGACUGCC [C13A G27C C31U] here?
Answer: 0.19

Question: Which self-cleavage does the source give for GGCAGAGCUCAACACAUCGUGGCAUAGUCGGUGUGGCUAGACUGCG [G17U A25U G29C C31G C46G] here?
Answer: 0.71

Question: With GGUAGAGCUCAACACCGCGUGGCAAAGUGGUUGUGGUUAGACAGCU [C3U A16C C31U C37U U43A C46U] as the variant, how does the self-cleavage read?
Answer: 0.05

Question: For GCCAGAGCUGAAAACAGCGUGGCAAAGUGUCUGUGGCUAGACUGCC [G2C C10G C13A G30U], which self-cleavage is on record?
Answer: 0.03

Question: For GGCAGAUAUCAACACAGCGUGGCAAAGUGGCAGUGGCUAGACUGCA [G7U C8A U32A C46A], which self-cleavage is on record?
Answer: 0.25

Question: Which self-cleavage does the source give for GGCAGCGCCCAACACAGCGCGGCAAAGUGUCUCUGGCUAGACUGCC [A6C U9C U20C G30U G33C] here?
Answer: 0.02

Question: For AGCAUAGCUCAACUGAACGGGACAAAGUGGCUGUGGCUAGACUGCC [G1A G5U A14U C15G G17A U20G G22A], which self-cleavage is on record?
Answer: 0.04

Question: Which self-cleavage does the source give for GGCAGACCUCAACACAGCGUGGCAAAGUGGCUGUGGCUAUACAGCC [G7C G40U U43A] here?
Answer: 0.04

Question: Which self-cleavage does the source give for GGCAGAGCUCAGCACAGCGUUGCAGCGUGGCUGAGGGUAAAUUGCC [A12G G21U A25G A26C U34A C37G G40A C42U] here?
Answer: 0

Question: With GGCAGAGCUCAUCACAGCGUGGAAAAGUGGUUGUGGCUAGACUGCC [A12U C23A C31U] as the variant, how does the self-cleavage read?
Answer: 0.07

Question: For GGGAGAGCUCAACACGGCGUGGAAAAGUGGCUGUGGCUAGACUGCC [C3G A16G C23A], which self-cleavage is on record?
Answer: 0.17

Question: Which self-cleavage does the source give for GGCAAAACUCAACACAACGUGGCAAAGCGGCUGUGGCUAGACUGCC [G5A G7A G17A U28C] here?
Answer: 0.24

Question: Which self-cleavage does the source give for GGGAGAGCUUAACACAGCGUGGCAAAGUGGCUGCGGCUACACUGCC [C3G C10U U34C G40C] here?
Answer: 0.06

Question: Which self-cleavage does the source give for GGCAGUGUUCAACACAGCGUGGCAAAGUGGCAGUGGUUAGACUGCC [A6U C8U U32A C37U] here?
Answer: 0.03

Question: With GGCAGAGCUCAACAAAGCGUGGCAACGUGGCUGUGACUUGACUGCC [C15A A26C G36A A39U] as the variant, how does the self-cleavage read?
Answer: 0.04

Question: Which self-cleavage does the source give for GGCAGAGCUCAGCACAGCGUGGCAAAGUGACUGUGGAUAGACUGCC [A12G G30A C37A] here?
Answer: 1.34

Question: Which self-cleavage does the source give for GUCAGAGCUCACCACAGCGAGGCAAAGUGGCUGUGGCUAGACUGCC [G2U A12C U20A] here?
Answer: 0

Question: For GGCAGAGCUCAGCACAGCGUGGCAAAGUGGCUGUUGAUAGACUGAC [A12G G35U C37A C45A], which self-cleavage is on record?
Answer: 0.04

Question: For GGCAGAGCUCAACACAGCGUAGCAACGUAGCUUUGGCUAGACUGAA [G21A A26C G29A G33U C45A C46A], which self-cleavage is on record?
Answer: 0.06

Question: With GGCAUAGCUCAAGACAGCGUGGCAAAGUGGCUGUGGCCCGACUGCC [G5U C13G U38C A39C] as the variant, how does the self-cleavage read?
Answer: 0.08

Question: With GGCAGAGCAUAACACAGCGUGGCAAAGUGGCUGUGGCUAGACUGCG [U9A C10U C46G] as the variant, how does the self-cleavage read?
Answer: 0.03

Question: For GAGAGAGCUCAAAACAGCGUGUCAAAGUGGCUGUGGGUAGACUGCC [G2A C3G C13A G22U C37G], which self-cleavage is on record?
Answer: 0.18

Question: With GGCAGAGCUCAACAAAGCGUGGCAAAGGGGCUGUGGCUAUACUGCC [C15A U28G G40U] as the variant, how does the self-cleavage read?
Answer: 0.05

Question: Which self-cleavage does the source give for GGCAGAACUCAACACAGAGUGGCAAAGUGGCUGUGGCUAGACUUCC [G7A C18A G44U] here?
Answer: 0.05

Question: With GGCAGAGCUCAACACAGCGAGGCAAAAUGGGUGUGGCUAGACUGCC [U20A G27A C31G] as the variant, how does the self-cleavage read?
Answer: 0.2

Question: Which self-cleavage does the source give for GGAAGUGCUCAACACAGCGUGGCAAGAUGGCUGUGGCUAGACUGCC [C3A A6U A26G G27A] here?
Answer: 0.27

Question: Which self-cleavage does the source give for GGCAAAGCUCAACACAGCGUGGCAAUGUGGCUGUGGCUAUACUGCC [G5A A26U G40U] here?
Answer: 0.02

Question: For GGCAGAGCUCAACACAGCCUGGCAAAGUGGCAGUGGUUAGACUGCC [G19C U32A C37U], which self-cleavage is on record?
Answer: 0.04
